Test results published in the supplement of paper PMC8512760.
Some of the results follow. Single values are uncertain, as repeats are few or missing.

Key:
Test in all cases: cell viability relative to vehicle (% of vehicle); basal-like triple-negative breast cancer lines; higher = less cytotoxic
Details in all cases: 10 µM; 72 h
[1] = test system: HCC-1143
[2] = test system: HCC-1187
[3] = test system: MDA-468
[4] = test system: SUM-149
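Note: stably firefly luciferase-GFP labeled cells in 96-well plates, viability read as luciferase photon flux after d-luciferin addition, treated wells normalized to vehicle wells, single-dose high-throughput screen.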

SMILES	cell viability [1]	cell viability [2]	cell viability [3]	cell viability [4]
CN(C)CCCN1c2ccccc2CCc2ccccc21.Cl [Imipramine (hydrochloride)]	73.9	86	99.4	83.2
N=C(N)NCCCC[C@@H]1NC(=O)CCSSC[C@@H](C(N)=O)NC(=O)[C@@H]2CCCN2C(=O)[C@H](Cc2c[nH]c3ccccc23)NC(=O)[C@H](CC(=O)O)NC(=O)CNC1=O [Eptifibatide]	117	107	105	106
CCCC(NC(=O)C1C2CCCC2CN1C(=O)C(NC(=O)C(NC(=O)c1cnccn1)C1CCCCC1)C(C)(C)C)C(=O)C(=O)NC1CC1 (stereo not drawn) [Telaprevir (VX-950)]	88.6	72.7	67.6	132
C[N+](C)(C)CCOC(=O)CCC(=O)OCC[N+](C)(C)C.O.O.[Cl-].[Cl-] [Succinylcholine Chloride Dihydrate]	77.8	88.5	93.4	94.4
C#CC1(O)CCC2C3CCc4cc(O)ccc4C3CCC21C (stereo not drawn) [Ethinyl Estradiol]	85	84.5	113	114
NC(CSCCCO)C(=O)O (stereo not drawn) [Fudosteine]	84.9	83.3	112	83.4
OCC1OC(Oc2ccc(O)cc2)C(O)C(O)C1O (stereo not drawn) [Arbutin]	81.6	81	114	104
CC/C(=C(\c1ccccc1)c1ccc(OCCN(C)C)cc1)c1ccccc1 [Tamoxifen]	80.4	102	128	125
O=C(O)c1ccc2c(c1)nc(Nc1cccc(Cl)c1)c1ccncc12 [CX-4945 (Silmitasertib)]	86.5	82.5	22.6	159
OCC(O)CN1CCN(c2ccccc2)CC1 (stereo not drawn) [Dropropizine]	66.8	101	105	98.9
Cl.O=C1c2cccc3c2C(CCC3)CN1C1CN2CCC1CC2 (stereo not drawn) [Palonosetron HCl]	89.9	84.1	73	77.4
O=C(O)C=Cc1ccc(Cn2ccnc2)cc1 [Ozagrel]	86.5	89.7	85.8	106
CS(=O)(=O)O.Cc1ccc(N(CC2=NCCN2)c2cccc(O)c2)cc1 [Phentolamine Mesylate]	78.1	98.5	108	109
N#Cc1ccc(C(c2ccc(C#N)cc2)n2cncn2)cc1 [Letrozole]	110	106	104	96.8
CN1CCC(OC(c2ccccc2)c2ccccc2)CC1.Cl [Diphenylpyraline HCl]	80	87.2	103	88.9
Clc1ccc2c(c1)CCc1cccnc1C2=C1CCNCC1 [Desloratadine]	88.6	91.2	87.8	91.7
O=C1NC(=O)C(c2ccccc2)(c2ccccc2)N1 [Phenytoin]	101	123	110	135
CC1(C)OC2COC3(COS(N)(=O)=O)OC(C)(C)OC3C2O1 (stereo not drawn) [Topiramate]	112	94.8	91.6	117
Oc1ccc(OC2CCCCO2)cc1 (stereo not drawn) [Deoxyarbutin]	76.6	75.2	117	134
CCCNC1CCc2nc(N)sc2C1.Cl.Cl.O (stereo not drawn) [Pramipexole 2HCl Monohydrate]	91.7	113	102	111
Clc1ccc(COC(Cn2ccnc2)c2ccc(Cl)cc2Cl)c(Cl)c1 (stereo not drawn) [Miconazole]	79.3	112	112	110
[O-][n+]1cccc(CO)c1 [Mepiroxol]	135	90.2	114	108
O=C(C1CCCCC1)N1CC(=O)N2CCc3ccccc3C2C1 (stereo not drawn) [Praziquantel]	76.7	98.6	113	107
C[C@H](C(=O)O)c1ccc(-c2ccccc2)c(F)c1 [(S)-Flurbiprofen]	81.7	96.4	117	91.1
Cl.O=C1CN2Cc3c(ccc(Cl)c3Cl)NC2=N1 [Anagrelide HCl]	106	73.5	93.5	107
Cc1c(O)c(=O)ccn1C [Deferiprone]	104	107	113	109
Cc1ccc(-c2cc(C(F)(F)F)nn2-c2ccc(S(N)(=O)=O)cc2)cc1 [Celecoxib]	84.7	89.4	79.5	97.4
